# The whole screen tested about 310,000 compounds, of which about 14,000 (4.5%) showed an effect of 50% or more. The effect is printed as a negative number. Some of the results follow.
# Biological target: human ether-à-go-go-related gene (hERG) potassium channel (human, UniProt Q12809)
# Experiment: primary screen, population patch clamp on CHO cells stably expressing hERG
# 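Also: peak tail current of the secondary pulse compared with the same well before compound.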
# Chain of human ether-à-go-go-related gene (hERG) potassium channel (Q12809 whole entry, looked up): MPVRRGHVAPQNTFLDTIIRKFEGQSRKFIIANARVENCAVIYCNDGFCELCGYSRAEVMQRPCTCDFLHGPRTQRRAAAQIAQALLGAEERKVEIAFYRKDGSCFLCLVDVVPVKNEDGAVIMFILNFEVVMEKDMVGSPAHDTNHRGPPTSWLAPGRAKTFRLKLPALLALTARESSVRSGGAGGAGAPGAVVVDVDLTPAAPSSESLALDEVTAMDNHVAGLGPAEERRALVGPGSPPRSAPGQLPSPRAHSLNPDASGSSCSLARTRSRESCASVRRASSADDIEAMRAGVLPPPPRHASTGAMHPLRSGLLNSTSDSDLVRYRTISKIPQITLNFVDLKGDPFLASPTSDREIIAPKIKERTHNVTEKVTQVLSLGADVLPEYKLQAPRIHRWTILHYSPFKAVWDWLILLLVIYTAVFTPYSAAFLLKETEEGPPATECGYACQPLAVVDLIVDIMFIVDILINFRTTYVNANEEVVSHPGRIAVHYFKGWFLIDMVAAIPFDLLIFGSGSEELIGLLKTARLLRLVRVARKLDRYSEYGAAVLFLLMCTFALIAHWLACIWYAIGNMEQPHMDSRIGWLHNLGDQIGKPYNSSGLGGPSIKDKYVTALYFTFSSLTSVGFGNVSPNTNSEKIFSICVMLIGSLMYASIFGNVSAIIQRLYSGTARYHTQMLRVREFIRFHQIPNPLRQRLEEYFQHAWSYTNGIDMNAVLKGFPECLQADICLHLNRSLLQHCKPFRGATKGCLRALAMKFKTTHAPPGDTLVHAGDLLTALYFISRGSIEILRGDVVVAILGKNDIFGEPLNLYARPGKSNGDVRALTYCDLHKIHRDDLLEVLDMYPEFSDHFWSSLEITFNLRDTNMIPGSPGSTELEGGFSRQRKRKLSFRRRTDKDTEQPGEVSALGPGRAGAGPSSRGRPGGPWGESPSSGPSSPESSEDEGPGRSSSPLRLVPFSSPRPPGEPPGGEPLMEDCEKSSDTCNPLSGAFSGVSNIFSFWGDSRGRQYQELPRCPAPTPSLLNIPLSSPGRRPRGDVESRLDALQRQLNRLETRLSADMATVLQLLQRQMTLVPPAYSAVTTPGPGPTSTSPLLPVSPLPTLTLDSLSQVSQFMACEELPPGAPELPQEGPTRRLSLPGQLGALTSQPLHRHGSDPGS
row,SMILES,"hERG current change (%, negative = inhibition) at 10uM [%]"
1,CCN(CC)CCCNC(=S)N(CCCO)Cc1cc2cc3c(cc2[nH]c1=O)OCO3,17.8
2,CCCC(=O)Nc1ccccc1Sc1ncnc2scc(-c3ccccc3)c12,1.51
3,O=C(COC(=O)/C=C/c1ccc([N+](=O)[O-])cc1)NCc1ccc2c(c1)OCO2,30
4,Cc1cc(=O)[nH]c(SCc2ccccc2)n1,27
5,CCOc1cccc(OCCNC2CCCC2)c1.O=C(O)C(=O)O,5.28
6,O=[N+]([O-])c1ccc(/C=[N+](\[O-])[C@@H]2CCCC[C@@H]2/[N+]([O-])=C/c2ccc([N+](=O)[O-])o2)o1,-42.7
7,CCOC(=O)c1c(C)nsc1NC(=O)C1CCCCC1,17.3
8,CCC1CCCCN1C(=O)c1noc(C(C)C)c1[N+](=O)[O-] (stereo not shown),8.5
9,Cc1ccccc1CS(=O)(=O)Cc1ccc(C(=O)NCCc2ccccc2)o1,-20.3
10,C[n+]1ccccc1/C=C/c1ccccc1Cl.[I-],10.4
11,CCOC(=O)C1=C(N)N(c2ccc(C)cc2)C2=C(C(=O)CCC2)C1c1cccs1 (stereo not shown),-12.6
12,O=C(COc1ccccc1)Nc1ccncc1,21.9
13,C/C=C/C(=O)OCC(=O)Nc1cc([N+](=O)[O-])ccc1Cl,-16.3
14,COc1ccccc1CCNC(=O)CNC(=O)c1ccc2ccccc2c1,-9.21
15,COc1ccccc1C(=O)Nn1cnc2ccccc2c1=O,20.6
16,CCc1ccc(N(C(=O)c2csnn2)C(C(=O)NC2CCCC2)c2cccnc2)cc1 (stereo not shown),-24.9
17,COC(=O)C1=C(CN2CCN(C)CC2)NC(=O)NC1c1cc(C)ccc1C (stereo not shown),-41
18,CC(=O)[C@@H]1[C@@H]2C(=O)N(c3ccccc3F)C(=O)[C@@H]2[C@H]2c3ccccc3C=NN12,-1.47
19,C/C=C(\C)C(=O)NCCN1C2=NC[C@H](C)N2C[C@@H]1Cc1ccc(OC)cc1,-4.7
20,CCN(CC)CCNC(=O)C(=O)Nc1cc2c3c(c1)CCC(=O)N3CCC2,20.6
21,CCC(C)NC(=S)N1CCN(Cc2ccc3c(c2)OCO3)CC1.O=C(O)C(=O)O (stereo not shown),-2.09
22,CCc1ccccc1N(CC(=O)N1CCCC1)S(C)(=O)=O,13.8

row,SMILES,"hERG current change (%, negative = inhibition) at 10uM [%]"
1,CCCCc1nnc(NC(=O)c2oc3ccc(OC)cc3c2C)s1,-6.76
2,O=c1c2cc(-c3ccccc3)sc2nc2n1N=C(c1ccccc1)CS2,29.2
3,Cc1cc(Cl)nc(-c2ccccc2)n1,11.5
4,CCOC(=O)N1CCN(C2=CC(=O)OC23CCCCC3)CC1,0.9
5,CC(Oc1ccc2c(c1)oc(=O)c1ccccc12)C(=O)NCCCN1CCOCC1 (stereo not shown),-36.6
6,CCOC(=O)c1oc2ccccc2c1NC(=O)COc1cccc(OC)c1,10.4
7,COc1ccccc1C1=CC(=O)C[C@H](c2ccc(F)cc2)C1,-1.61
8,Cc1ccc(-c2nc3c(=O)n(-c4ccccc4)c4c(c(=O)n(C)c(=O)n4C)c3o2)cc1,4.81
9,COC(=O)C1=C(C)N(CCCC(=O)O)C(=O)NC1c1cc2c(cc1[N+](=O)[O-])OCO2 (stereo not shown),16.4
10,COc1ccc(CN(C)CC(=O)Nc2ccc(SC(F)F)cc2)cc1OC,-76.2
11,CCCN1C(=O)/C(=C/c2c(N3CCNC(=O)C3CC(=O)OCC)nc3c(C)cccn3c2=O)SC1=S (stereo not shown),-13.1
12,CCC(=O)c1ccc(OCC(=O)N2CCCC2)c(OC)c1,-22.5
13,CCOc1ccc(CCNC(=O)CCCN2C(=O)c3ccccc3C2=O)cc1OCC,0.331
14,CCNC(=O)c1c(NC(C)=O)sc2c1CCCC2,-5.36
15,COc1ccc(CC(=O)N/N=C/c2ccc(-c3cccc(C(=O)O)c3)o2)cc1OC,3.33
16,Cc1cc(=O)oc2cc(NC(=O)c3cccc(S(C)(=O)=O)c3)ccc12,15.1
17,COc1cc(/C=N/NC(=O)c2cccnc2)ccc1OCC(=O)Nc1ccccc1Cl,18.8
18,O=S(=O)(NCc1cccnc1)c1cccc2nsnc12,-13.8
19,COc1cc(C(=O)N2CCN(C/C=C/c3ccccc3)CC2)cc(OC)c1OC,-35
20,C=CCn1c(SCC#N)nc2c(c1=O)C(C)(C)Cc1ccccc1-2,-0.613
21,NS(=O)(=O)c1ccc(CCNc2nc3c(-c4cccc(F)c4)nnn3c3ccccc23)cc1,21.5
22,O=C(/C=C/c1cccs1)N1CCCCC1,6.64

row,SMILES,"hERG current change (%, negative = inhibition) at 10uM [%]"
1,CCCCc1cc(=O)oc2cc(OCc3nn[nH]n3)ccc12,0.904
2,CCCC(=O)Nc1c(-c2ccccc2)c(=O)c(C)nn1-c1ccccc1,10.3
3,C=CC1C(N2CCOCC2)C(C)(C)S1(=O)=O (stereo not shown),1.81
4,O=C(Nc1nc(-c2ccc3c(c2)OCO3)cs1)c1ccncc1,-0.461
5,O=C(NCc1ccco1)C1CCN(C(=O)c2cc3sccc3n2Cc2ccc(Cl)cc2)CC1,-64.8
6,O=C(CCc1nc2ccccc2c(=O)[nH]1)N1CCN(S(=O)(=O)c2ccccc2Br)CC1,-51.3
7,CC(C)OP(=O)(OC(C)C)C(NCc1ccccc1)c1ccccc1.Cl (stereo not shown),-21.9
8,O=c1c2ccccc2nc(SCc2ccc([N+](=O)[O-])cc2)n1-c1ccccc1,10.9
9,Cc1ccc[n+](-c2[nH]c(=O)sc2/C=N/N=C(\[O-])CCn2c3ccccc3c3ccccc32)c1,8.86
10,CCOCCCn1c(=NC(=O)c2ccc(OC)c(OC)c2)c(C#N)cc2c(=O)n3cccc(C)c3nc21,-63.4
11,O=C(CN1C(=O)NC2(CCCC2)C1=O)Nc1ccccc1C(F)(F)F,14.3
12,COc1ccc(CC(=O)OCC(=O)c2c[nH]c3ccccc23)cc1,-4.64
13,CC(=O)c1ccc(NC(=O)C(C)N(C)CC(=O)Nc2ccccc2Cl)cc1 (stereo not shown),-0.0331
14,COc1ccc(S(=O)(=O)Nc2cc(Cl)ccc2-n2cncn2)cc1,-0.298
15,COc1cc(NC(=O)CSc2nc(C)cs2)cc(OC)c1,-1.09
16,COc1ccc(-c2cc(=O)c3c(OC)c(OC)c(OC)c(OC)c3o2)cc1OC,-14.9
17,CC1CC(C)CN(S(=O)(=O)c2ccc(NC(=O)CN3C(=O)NC(C)(c4ccccc4)C3=O)cc2)C1 (stereo not shown),7.75
18,O=C(NC1CC1)c1ccc(-c2ccccc2)cc1,19.2
19,COc1ccc(N2CC(NC(=O)N3CCN(c4ccccc4)CC3)CC2=O)cc1 (stereo not shown),-23.5
20,CCOC(=O)c1c(NC(=O)C2CCCO2)sc2c1CCC2 (stereo not shown),-8.39
21,O=C(O)c1ccccc1-c1ccccc1C(=O)NCc1ccccc1Cl,-37.6
22,O=C(NNC(=O)c1cccnc1)Nc1ccc(Cl)c(Cl)c1,8

row,SMILES,"hERG current change (%, negative = inhibition) at 10uM [%]"
1,CCOC(=O)CN1C(=O)N[C@@H](c2cccc(C(F)(F)F)c2)[C@@H](C(=O)OC)[C@H]1C,5.95
2,N#Cc1ccccc1Cn1c(=O)n(-c2ccc(CC(=O)NCc3ccco3)cc2)c(=O)c2sccc21,7.64
3,CCC(CC)NC(=O)COn1nnc2ccc(S(=O)(=O)N3CCOCC3)cc21,-7.12
4,O=C(CSc1nc2ccccc2c(=O)n1Cc1ccco1)N1CCCCCC1,-76.4
5,Cc1nn(-c2ccccc2)c(N2CCCC2)c1/C=N/NC(=O)c1cccc(S(=O)(=O)Nc2ccc(Cl)cc2)c1,3.12
6,O=C(NCCc1csc(-c2ccccc2)n1)c1ccco1,-29.7
7,COc1ccc(S(=O)(=O)Nc2ccc(NC(C)=O)cc2)cc1,13.4
8,COc1ccc(NC(=O)CCN2CCN(S(=O)(=O)c3ccc(OC)cc3)CC2)cc1,-25
9,COCCn1c(SCC(=O)N2CCC(C)CC2)nc2c([nH]c3ccccc32)c1=O,-19.8
10,Cc1ccc(Cn2nc(C)c(NC(=O)CSc3nc4c(c(C(F)(F)F)n3)CCc3ccccc3-4)c2C)cc1,13.1
11,O=[N+]([O-])c1cc(-c2nnc(-c3ccccc3)o2)ccc1Oc1ccc(Cl)cc1,-0.998
12,N#CCCn1cc(C(=O)NCc2ccccc2)c(-c2ccccc2)n1,-13.6
13,CSc1nc(-c2ccc(Cl)cc2)nn1S(=O)(=O)c1ccc(Cl)cc1,-0.316
14,Cn1c(N)c(C#N)c2c(c1=S)CSC(C)(C)C2,-41.2
15,CCOc1ccc2nc(SCC(=O)NCc3ccc(OC)c(OC)c3)[nH]c2c1,4.2
16,Cc1cccc(C(=O)O/N=C2\CCCc3ccccc32)c1,8.49
17,Cc1cccc(-n2c(-c3ccoc3C)n[nH]c2=S)c1,32.9
18,CCOC(=O)N1CCN(c2c(N3CCN(c4cc(C)ccc4C)CC3)c(=O)c2=O)CC1,-15.1
19,Cn1c(=O)c2nc(-c3ccc(Cl)cc3Cl)oc2c2ccccc21,18.4

# — paper PMC4336329 (PLoS ONE, 2015)
